Consider one protein from PMC3519909.

Substrate in the data set: OC[C@H]1O[C@@](CO)(O[C@H]2O[C@H](CO)[C@@H](O)[C@H](O)[C@H]2O)[C@@H](O)[C@@H]1O
As to the kind of experiment: glucose oxidase/peroxidase coupled glucose release. The format is biochemical, Saccharomyces cerevisiae. As to conditions: Michaelis-Menten or Hill fit.

B1: Mal12 (Saccharomyces cerevisiae S288C) (protein)
chain: MTISDHPETEPKWWKEATIYQIYPASFKDSNNDGWGDLKGITSKLQYIKDLGVDAIWVCPFYDSPQQDMGYDISNYEKVWPTYGTNEDCFELIDKTHKLGMKFITDLVINHCSTEHEWFKESRSSKTNPKRDWFFWRPPKGYDAEGKPIPPNNWKSFFGGSAWTFDETTNEFYLRLFASRQVDLNWENEDCRRAIFESAVGFWLDHGVDGFRIDTAGLYSKRPGLPDSPIFDKTSKLQHPNWGSHNGPRIHEYHQELHRFMKNRVKDGREIMTVGEVAHGSDNALYTSAARYEVSEVFSFTHVEVGTSPFFRYNIVPFTLKQWKEAIASNFLFINGTDSWATTYIENHDQARSITRFADDSPKYRKISGKLLTLLECSLTGTLYVYQGQEIGQINFKEWPIEKYEDVDVKNNYEIIKKSFGKNSKEMKDFFKGIALLSRDHSRTPMPWTKDKPNAGFTGPDVKPWFLLNESFEQGINVEQESRDDDSVLNFWKRALQARKKYKELMIYGYDFQFIDLDSDQIFSFTKEYEDKTLFAALNFSGEEIEFSLPREGASLSFILGNYDDTDVSSRVLKPWEGRIYLVK
notes: purified present-day enzyme; expression details in Text S1
One may read the Km as the substrate concentration at which the rate is half of its maximum. A word on the kcat: it is the number of substrate molecules converted per active site and unit of time at saturation. As for B1, the Km came to 11.96 ± 0.68 mM and the catalytic constant (kcat) stood at 0.4497 ± 0.007 s⁻¹.
